# Data published in the supplement of paper PMC8821664.
# Counter-ions that a name gives are not always drawn. This is one part of the list. Most values come without repeats; read them as rough.
# Tested on: Beas-2B AQP5-HiBiT reporter cells
# Assay: AQP5-HiBiT luminescence relative to vehicle (ratio to vehicle); higher = higher AQP5-HiBiT protein abundance
# Conditions: 10 µM; 18 h
# 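Note: monoclonal Beas-2B line stably carrying CMV promoter-driven AQP5-HiBiT, 5,000 cells per well in 384-well plates, lytic HiBiT plus LgBiT NanoLuc luminescence, FDA-approved drug library screen.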
row,SMILES,AQP5-HiBiT luminescence
1,CCC(=O)NCC[C@@H]1CCc2ccc3c(c21)CCO3 [Ramelteon],0.864
2,N[C@@H](CC(=O)N1CCn2c(nnc2C(F)(F)F)C1)Cc1cc(F)c(F)cc1F [Sitagliptin],1.01
3,CN(C)CCC(c1ccc(Br)cc1)c1ccccn1 (configuration not stated) [Brompheniramine hydrogen maleate],1.41
4,c1cc(CN2CCCNCCNCCCNCC2)ccc1CN1CCCNCCNCCCNCC1 [Plerixafor],0.618
5,O=C(O)c1cc(/N=N/c2ccc(S(=O)(=O)Nc3ccccn3)cc2)ccc1O [Sulfasalazine],0.636
6,CC(=O)NCCCS(=O)(=O)O [Acamprosate calcium],0.842
7,Clc1ccc(CO/N=C(\Cn2ccnc2)c2ccc(Cl)cc2Cl)c(Cl)c1 [Oxiconazole nitrate],0.802
8,CC1(C)O[C@@H]2C[C@H]3[C@@H]4CCC5=CC(=O)C=C[C@]5(C)[C@@]4(F)[C@@H](O)C[C@]3(C)[C@]2(C(=O)CO)O1 [Triamcinolone acetonide],0.599
9,C[C@@H]1C[C@H]2[C@@H]3CCC4=CC(=O)C=C[C@]4(C)[C@@]3(F)[C@@H](O)C[C@]2(C)[C@@]1(O)C(=O)CO [Dexamethasone (DHAP)],0.787
10,Brc1c(NC2=NCCN2)ccc2nccnc12 [Brimonidine Tartrate],0.874
11,CCc1c2c(nc3ccc(OC(=O)N4CCC(N5CCCCC5)CC4)cc13)-c1cc3c(c(=O)n1C2)COC(=O)[C@]3(O)CC [Irinotecan],0.429
12,CNC(=O)c1ccccc1Sc1ccc2c(/C=C/c3ccccn3)n[nH]c2c1 [Axitinib],0.888
13,COc1cc([C@@H]2c3cc4c(cc3[C@@H](O[C@@H]3O[C@@H]5CO[C@@H](C)O[C@H]5[C@H](O)[C@H]3O)[C@H]3COC(=O)[C@H]23)OCO4)cc(OC)c1O [Etoposide],0.559
14,CC1OC2(CS1)CN1CCC2CC1 (configuration not stated) [Cevimeline hydrochloride hemihydrate],0.648
15,Oc1ccc(O)cc1 [Hydroquinone],1.09
16,C[C@]12CC[C@H](O)CC1=CC[C@@H]1[C@@H]2CC[C@]2(C)C(c3cccnc3)=CC[C@@H]12 [Abiraterone],0.627
17,C=C1c2cccc(O)c2C(=O)C2=C(O)[C@]3(O)C(=O)C(C(N)=O)=C(O)[C@@H](N(C)C)[C@@H]3[C@@H](O)[C@H]12 [Methacycline hydrochloride],0.608
18,C[N+]1(C)CCC(OC(=O)C(O)(c2ccccc2)C2CCCC2)C1 (configuration not stated) [Glycopyrrolate],0.665
19,CCC(C)N1CCCC1=O (configuration not stated) [Povidone-iodine (PVP-I)],0.977
20,CN/C(=N\CCSCc1nc[nH]c1C)NC#N [Cimetidine],0.78
21,CCc1ccc(CCOc2ccc(CC3SC(=O)NC3=O)cc2)nc1 (configuration not stated) [Pioglitazone],1.01
22,C#C[C@]1(O)CC[C@H]2[C@@H]3CCC4=Cc5oncc5C[C@]4(C)[C@H]3CC[C@@]21C [Danazol],0.717
23,Cc1ccc(NC(=O)c2ccc(CN3CCN(C)CC3)cc2)cc1Nc1nccc(-c2cccnc2)n1 [Imatinib (STI571)],1.33
24,O=C(CCCN1CC=C(n2c(=O)[nH]c3ccccc32)CC1)c1ccc(F)cc1 [Droperidol],1.15
25,Cc1nc2c([nH]1)-c1ccccc1N(C(=O)c1ccc(NC(=O)c3ccccc3-c3ccccc3)cc1)CC2 [Conivaptan hydrochloride],1.17
26,CC(C)(O/N=C(\C(=O)N[C@@H]1C(=O)N2C(C(=O)[O-])=C(C[n+]3ccccc3)CS[C@H]12)c1csc(N)n1)C(=O)O [Ceftazidime],0.706
27,C#CCN(C)Cc1ccccc1 [Pargyline],0.624
